Results on 172 sequences are retold here after article PMC6212790.

This is one part of the list. At the low end of the ranking the order means little.

The target in this test is T1, GST-Rok-C97-191 (UniProt O34857).
T1 sequence: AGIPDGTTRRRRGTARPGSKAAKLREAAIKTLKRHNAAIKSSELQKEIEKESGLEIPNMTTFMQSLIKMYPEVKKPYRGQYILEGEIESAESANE
Kind of test: protein binding microarray.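 Note: rank score from −0.5 (least bound) to 0.5 (best bound).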 The note with it: Rok is a gene silencer of Bacillus subtilis; high values mean tight binding; most listed sequences are background and not binding sites; double strand, one strand shown.
GTAGTGAA yielded a binding signal of 0.111 E-score.
CCATAACC registered a binding signal of -0.159 E-score.
In the case of ATGTGCGG, the binding signal was -0.19 E-score.
To GATTAGTA belongs 0.198 E-score; to CGATAAGA, 0.0724 E-score; to AGAGTCCG, -0.147 E-score.
As to AGCTGGTG, the binding signal was determined as 0.0512 E-score.
In the case of AAGATACC it was 0.166 E-score; in that of AACCGATA, 0.108 E-score; in that of CCTGTGGA, -0.131 E-score.
In the case of AGCTTAGG, the binding signal is -0.00777 E-score.
GGGGGCAA gave a binding signal of -0.204 E-score.
Turning to CGTTTTTA, the binding signal worked out at 0.114 E-score.
To AACTCAAC belongs -0.0426 E-score.
For the sequence CTGTGTGC, the binding signal was -0.151 E-score.
In the case of ACGTACGA it was 0.121 E-score; in that of GGAGGAAA, -0.0512 E-score.
For CGGAAGTC, the binding signal is -0.139 E-score.
On to TGACGCAA, for which the binding signal was -0.0984 E-score.
CCCCTCTC: the binding signal was -0.281 E-score.
ACAAGTAT registered a binding signal of 0.225 E-score.
For ACCACCCG, the binding signal is -0.247 E-score.
Consider CCATGCCC, for which the binding signal was -0.192 E-score.
In turn, CAATATCG had a binding signal of -0.014 E-score.
Take CGATGGGA: the binding signal is -0.138 E-score.
In the case of CCCTGGCA it was -0.242 E-score; in that of AGGACTAG, -0.0267 E-score.
In the case of AAAATTAA it was 0.31 E-score; in that of CAGTGAGG, -0.1 E-score; in that of CGAGAGAA, 0.148 E-score.
In the case of AAACTGAT it was 0.116 E-score.
CCAAAAGA: the binding signal is -0.182 E-score.
The sequence ACACTTGA gave a binding signal of 0.122 E-score.
To AGGCCACC belongs -0.16 E-score; to GTCGAGAC, -0.186 E-score; to ACTAGAAA, 0.4 E-score.
CTTCTAGC gave a binding signal of 0.138 E-score.
To GAAGTTAC belongs 0.226 E-score.
To AGAGACGG belongs -0.057 E-score.
In the case of AAAGAACA it was -0.118 E-score.
As for CAGTCTAA, the binding signal was -0.037 E-score.
On to AGCCACAA, for which the binding signal is -0.119 E-score.
To ATGACTGA belongs 0.0364 E-score; to GATTTCCC, -0.109 E-score; to CTACCCCC, -0.094 E-score.
To CGGCTAAG belongs -0.0676 E-score.
To ACTGAGAC belongs -0.114 E-score.
On to CAGTGAGC, for which the binding signal is -0.162 E-score.
Consider GACCTAAC, for which the binding signal is -0.0699 E-score.
To GCTGGTTA belongs 0.0982 E-score.
AAACAACG registered a binding signal of 0.09 E-score.
GCACAAAA had a binding signal of 0.0876 E-score.
In the case of CCGGCTAC it was -0.0581 E-score; in that of AATCTATA, 0.4 E-score; in that of ACGTAATA, 0.252 E-score.
To GATAAGCA belongs 0.0731 E-score; to CCCTGGCC, -0.377 E-score.
In turn, GAAACCCA registered a binding signal of -0.155 E-score.
The sequence ATGTAAGA returned a binding signal of 0.000177 E-score.
CATGTGCG displayed a binding signal of -0.239 E-score.
ACTTAAAG registered a binding signal of -0.106 E-score.
On to CGGTAGAG, for which the binding signal was -0.0194 E-score.
To AGCCGCCC belongs -0.246 E-score; to AGGCTAGG, -0.14 E-score.
To TCGCATAA belongs 0.137 E-score; to ATCCGCGC, -0.191 E-score.
Regarding CCTATTCA, the binding signal is -0.0964 E-score.
Sequence ATTTTAAA had a binding signal of 0.164 E-score.
AGCGGTTG returned a binding signal of -0.0704 E-score.
To AAGGGACG belongs -0.3 E-score.
In the case of AAGCTTAC it was -0.0731 E-score; in that of TCCCCAAA, -0.0772 E-score; in that of AATGTTAG, 0.108 E-score.
In the case of AAATAAGA it was 0.0906 E-score.
Consider AGGCAGAT, for which the binding signal was -0.285 E-score.
To CACAGCCC belongs -0.0548 E-score; to AAATAGGC, 0.0501 E-score.
In the case of GTATCACA it was 0.201 E-score; in that of TGTCCGAA, -0.147 E-score; in that of CAATTAAA, 0.172 E-score.
On to TACGTCCA, for which the binding signal stood at 0.0811 E-score.
Sequence ATATATGG returned a binding signal of 0.279 E-score.
To GCACGGCC belongs -0.282 E-score.
CCCCCTCA displayed a binding signal of -0.304 E-score.
ATAGTGCC displayed a binding signal of -0.097 E-score.
To AGATAGTA belongs 0.376 E-score; to GAGCTATA, 0.122 E-score.
In the case of AGAAACTC it was 0.0994 E-score; in that of GAGGAGGA, -0.348 E-score.
GTAGGCTA displayed a binding signal of -0.14 E-score.
As for CGCACAGA, the binding signal is -0.0699 E-score.
ATAGACTC yielded a binding signal of -0.0758 E-score.
As to ACCGAGAT, the binding signal is -0.0432 E-score.
Sequence CCGTCAGG returned a binding signal of -0.247 E-score.
In the case of GTAAACAA it was -0.0801 E-score.
ACGTGCGA returned a binding signal of 0.0156 E-score.
To ACGCACTC belongs 0.0103 E-score.
With CCATTTGA, the binding signal is -0.134 E-score.
To CCGCACAA belongs -0.16 E-score; to AAGGCCCC, -0.375 E-score; to GATCGACA, -0.145 E-score.
ACGAGGTC had a binding signal of 0.108 E-score.
CCGTTCTC showed a binding signal of -0.149 E-score.
To CACAAAAG belongs -0.0713 E-score; to GGCCATTA, 0.12 E-score.
GCGGGCAC displayed a binding signal of -0.232 E-score.
As for CCGCATGA, the binding signal is -0.456 E-score.
As to CTTTAGTA, the binding signal is 0.244 E-score.
In turn, AACACGAT registered a binding signal of 0.0135 E-score.
The sequence CAGTATAC showed a binding signal of 0.0992 E-score.
In turn, ATCACTTA registered a binding signal of 0.18 E-score.
To CCGCCAGC belongs -0.235 E-score.
On to CGACTGAA, for which the binding signal is -0.021 E-score.
To CAGAGCGA belongs -0.219 E-score; to ACGAGCGC, -0.0998 E-score; to CTTTACAC, -0.0852 E-score.
Sequence CGGAGTAA registered a binding signal of -0.0311 E-score.
The sequence CCATCCGG came in with a binding signal of -0.207 E-score.
To AATGTTCG belongs -0.0868 E-score; to ACTCCTAA, 0.0798 E-score.
In the case of GAACCGGA it was -0.255 E-score.
Sequence CATGCAGA displayed a binding signal of -0.0987 E-score.
In the case of ATTGCCTC it was -0.0892 E-score; in that of GCACTATA, 0.0612 E-score.
In the case of GCACAAGA it was -0.2 E-score.
In the case of GCGCCCCA it was -0.367 E-score; in that of CATAATGA, 0.175 E-score.
In turn, AGCCGGCA registered a binding signal of -0.106 E-score.
To TACGACAA belongs 0.151 E-score; to ATCCTGGA, -0.00701 E-score.
To CGACTAGA belongs 0.137 E-score; to CTGCGTAA, -0.147 E-score; to TACCCGGA, 0.125 E-score.
In the case of GAAGCAGA it was 0.0311 E-score; in that of AAAACAAT, 0.0544 E-score.
In turn, GTTACCTA gave a binding signal of 0.147 E-score.
For GCTGCATA, the binding signal was 0.00474 E-score.
To ACTGGTAG belongs 0.176 E-score; to CTAACTAC, 0.348 E-score; to AGCCTGAG, -0.28 E-score.
To TAAATCCA belongs 0.133 E-score; to TCTGGCCA, 0.0184 E-score; to CAAGTTGG, -0.149 E-score.
To GTGGGTTA belongs -0.0431 E-score; to CATCGTCG, 0.0297 E-score; to GCCCGTAA, -0.151 E-score.
With ATGCTTAG, the binding signal worked out at 0.0314 E-score.
To AATCCAGA belongs -0.0632 E-score; to GGTGTTAC, 0.0806 E-score.
The sequence CCGGAGCG registered a binding signal of -0.122 E-score.
CCATCCTA returned a binding signal of -0.027 E-score.
In the case of ACCCACGG it was -0.16 E-score; in that of GTAAGTTA, 0.153 E-score; in that of GCAACGAC, -0.0711 E-score.
Turning to CCAATAGC, the binding signal was 0.0307 E-score.
For the sequence ATCGCGGG, the binding signal was -0.147 E-score.
ACCAACTG came in with a binding signal of -0.0926 E-score.
With AGTGGAGA, the binding signal is -0.134 E-score.
To TATGTTCA belongs 0.164 E-score; to CTGGCATA, 0.0311 E-score; to AAGAGCAC, -0.0613 E-score.
In the case of ATACCCCC it was -0.134 E-score; in that of CCACGGGA, -0.126 E-score.
Turning to AAGCCCGG, the binding signal is -0.207 E-score.
To GCTATCCC belongs -0.0307 E-score; to AGTAAACC, 0.0774 E-score.
In the case of CGCCCTGC it was -0.272 E-score; in that of AGGATGTC, -0.179 E-score.
In the case of CCTTTCGA it was -0.357 E-score; in that of GTTTTGAA, -0.0913 E-score; in that of ACAGAAAT, 0.145 E-score.
AAACAATG yielded a binding signal of -0.00307 E-score.
